PubChem BioAssay AID651820 (National Center for Advancing Translational Sciences (NCATS), 2012)
The campaign covered roughly 340,000 compounds. About 12,000 (3.5%) were called active. The shares of active, inactive and inconclusive entries below differ from those in the screen. Calls come from the whole dose curve; as a rule, active = well fitted inhibition curve with a large enough effect; inconclusive = small, poorly fitted or top-dose-only effect, or another doubt; inactive = no such curve, though single readings can be large or run the other way. No potency is given beside an inconclusive call; the fits are too rough.
% is set by controls: 0 for no effect and ±100 for the full control effect; potency is the fitted concentration of half-maximal effect; tags give direction and shape of the fitted curve.

Assay: qHTS Assay for Inhibitors of Hepatitis C Virus (HCV)
Details: Huh7.5.1 HCVcc-Cre (HCVcc is cell-culture hepatitis C virus) infection, luciferase reporter, 44 h; activity change, negative = inhibition: at 41.8 µM (top of the series) unless noted
How it was run: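 1,000 cells/well; 4 h culture; + compound; + HCVcc-Cre (~0.5 moi); 44 h; luciferase substrate, RT 15 min; read 15 sec.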
In the case of Cc1ccc(NC(=O)c2cc([N+](=O)[O-])ccc2NCc2cccnc2)cc1Cl, the Potency was inconclusive [inhibitor, single point]. For Nc1cc(Cl)nc(N/N=C/c2ccccc2[N+](=O)[O-])n1, the “activity change, negative = inhibition” value was inactive: -7.59%. For COc1ccc(OCc2cc(C(=O)N3C[C@@H](C)O[C@@H](C)C3)no2)c(Cl)c1, the “activity change, negative = inhibition” value was inactive: -31.6%. With CCc1ccc(C(=O)NNC(=O)c2cc(S(=O)(=O)N(C)C)ccc2N2CCCC2)cc1 the Potency was inconclusive [inhibitor, single point]. With Cc1nn(-c2ccccc2)c(C)c1NC(=O)COc1ccc(Br)cc1Cl the Potency was inconclusive [inhibitor, full curve]. With COc1ccc(O)c(/C=N/NC(=O)c2cccc(N3CCCC3=O)c2)c1 the Potency was inconclusive [inhibitor, single point]. With COc1ccccc1CCC(=O)Nc1ncc(C)s1 the Potency was inconclusive [inhibitor, single point]. For COCCn1c(C)cc(C(=O)CSc2nnc3ccccn23)c1C, the “activity change, negative = inhibition” value was inactive: 8.75%. For CN1CCSc2ccc(C(=O)NCc3cccc(F)c3)cc21, the Potency was inconclusive [inhibitor, partial curve]. With COc1ccc(C)cc1Nc1n[n+](-c2ccccc2)c(-c2c(Cl)cccc2Cl)s1 the activity change, negative = inhibition was inactive: -24.3% [at 8.37 µM]. For CCNc1nc(SCC(=O)Nc2ccc(Cl)c(Cl)c2)nc(N(C)C)n1, the Potency was inconclusive [inhibitor, partial curve]. For CCCCOc1ccc(C(=O)N2CCCC2)cc1, the “activity change, negative = inhibition” value was inactive: 1.07%. With CCn1c(SCC(=O)N2CCCc3ccccc32)nc2c(c1=O)SC(C)C2 (stereo not given) the Potency was inconclusive [inhibitor, single point]. In the case of COc1ccc2[nH]c3c(c2c1)CCN1C(=O)C(CC(=O)NCCCn2ccnc2)C[C@H](C(=O)N2CCOCC2)[C@@]31C (stereo not given in full), the “activity change, negative = inhibition” value was inactive: 39.2%. For CCOC(=O)/C(C#N)=C\c1c(OCC)n(CC)c2ccccc12, the Potency was inconclusive [inhibitor, single point]. For Cc1cc(C)c(C#N)c(OCC(=O)c2ccccc2)n1, the “activity change, negative = inhibition” value was inactive: -7.58%. For Cn1nc(C(F)(F)F)c(C(=O)Nc2ccc(F)cc2F)c1Oc1cccc(Cl)c1, the Potency was inconclusive [inhibitor, partial curve]. With O=C(Nc1cc(S(=O)(=O)N2CCCC2)ccc1Cl)c1cc(F)c(F)c(F)c1F the Potency was inconclusive [inhibitor, single point]. In the case of O=C(Nc1nc(-c2ccccc2)cs1)C1CCCCN1S(=O)(=O)c1ccccc1 (stereo not given), the Potency was inconclusive [inhibitor, single point]. With CCOC(=O)N1CCC(NC(=O)C2CCCN(C(=O)c3cc4sccc4n3C)C2)CC1 (stereo not given) the Potency was inconclusive [inhibitor, partial curve]. In the case of COC(=O)C1=C(c2ccc(S(C)(=O)=O)cc2)C[C@@H]2CC[C@H]1N2C(=O)NCc1cccc2ccccc12, the Potency was inconclusive [inhibitor, single point]. For OC[C@@H]1[C@@H](c2ccc(Cl)cc2)C(c2ccc(F)cc2)=NN1c1ccccc1, the Potency was inconclusive [inhibitor, partial curve]. With COc1ccc(CCNC(=O)C2CCCN(S(=O)(=O)c3cc(C)ccc3OC)C2)cc1OC (stereo not given) the “activity change, negative = inhibition” value was inactive: 6.98%. In the case of COc1ccc(-c2c3c(=O)n(C)c(=O)n(C)c3cn2C2CCCCC2)cc1, the Potency was active: 25.1 µM. In the case of CCN(Cc1ccccc1)S(=O)(=O)c1cc(C(=O)NC2CCCCCC2)ccc1OC, the Potency was inconclusive [inhibitor, single point]. For COC(=O)c1ccccc1NC(=O)c1ccc(-c2ccc(Br)cc2)o1, the “activity change, negative = inhibition” value was inactive: -29%. For CC(=O)c1sc(NC(=O)CCCOc2ccc(Cl)cc2)nc1C, the “activity change, negative = inhibition” value was inactive: -11%. For Cc1n[nH]c(C)c1S(=O)(=O)N1CCCC(C(=O)NC2CCCc3ccccc32)C1 (stereo not given), the Potency was inconclusive [inhibitor, single point]. In the case of CCC(C)/C(C)=N/NC(=O)CNS(=O)(=O)c1ccc([N+](=O)[O-])cc1 (stereo not given), the “activity change, negative = inhibition” value was inactive: -14.1%. For CCc1ccc(CN2CCCC(CNS(=O)(=O)c3ccc(OC)cc3)C2)cc1 (stereo not given), the Potency was inconclusive [inhibitor, single point]. With COc1ccc(-c2ccc3c(c2)c(-c2cccs2)c(-c2cc(OC)cc(OC)c2)n3C)cc1 the “activity change, negative = inhibition” value was inactive: -2.67%. With CS(=O)(=O)c1ccc(C(=O)Nc2cc(-c3ccccc3)nn2-c2ccccc2)cc1 the Potency was inconclusive [inhibitor, single point]. In the case of CCn1c(SCC(=O)NC2CC2)nnc1C(C)Oc1ccccc1 (stereo not given), the “activity change, negative = inhibition” value was inactive: 18.3%. In the case of CCOc1ccc(CN2CCC(Cc3ccccc3)CC2)cc1, the Potency was inconclusive [inhibitor, single point]. With COc1ccc(Br)cc1S(=O)(=O)N1CCCc2ccccc21 the “activity change, negative = inhibition” value was inactive: -20.8%. In the case of CC(C)C(NC(=O)c1ccc(C(C)(C)C)cc1)C(=O)NCc1ccccn1 (stereo not given), the Potency was inconclusive [inhibitor, single point]. For CCOC(=O)c1c(C)[nH]c(C)c1C(=O)COC(=O)c1ccc([N+](=O)[O-])s1, the Potency was inconclusive [inhibitor, single point]. For CCc1ccc(C(=O)NNC(=O)c2c(CC)noc2C)cc1, the Potency was inconclusive [inhibitor, single point]. For CCOC(=O)c1sc(NC(C)=O)c(C(=O)OCC)c1C, the Potency was inconclusive [inhibitor, full curve]. In the case of Cc1ccc(-n2nc3c(=O)n(C(C)C(=O)NCCCc4ccccc4)nc(C)c3c2C)cc1 (stereo not given), the Potency was inconclusive [inhibitor, full curve]. In the case of CSCc1nc2sc(C(=O)Nc3nc(C)cs3)c(C)c2c(=O)[nH]1, the Potency was active: 11.2 µM. For CC(/C=N/NC(=O)c1cc(-c2ccc(C)s2)[nH]n1)=C\c1ccccc1, the Potency was active: 5.62 µM. With Cc1ccc(OCCCCn2cnc3ccccc32)c(C)c1 the Potency was inconclusive [inhibitor, partial curve]. For Oc1ccc(NCc2ccccc2OCc2ccccc2F)cc1, the “activity change, negative = inhibition” value was inactive: -22.6%. For Cc1ccc2nc(-c3sc4nc(C)ccc4c3N)[nH]c2c1, the Potency was inconclusive [inhibitor, single point].
